Assay results published in the supplement of paper PMC10369915.
The list shows a part of the results. No stated cut-off is given here; in the data, active = 3.2 or more and inactive = the rest. Only a few entries rise above the background.

B1: PLD2_HUMAN_511 (peptide)
chain: FFWLGKDYSNLITKD
B2: ARHGAP5_HUMAN_306_YA (peptide)
chain: NHPDAEEYINLEGTR
B3: PLSI_HUMAN_30 (peptide)
chain: IDIDNSGYVSDYELQ
B4: PLOD2_HUMAN_323 (peptide)
chain: DILLTLDYPKEALKL
B5: PLSI_HUMAN_30_YA (peptide)
chain: IDIDNSGYVSDAELQ
B6: PP1R8_HUMAN_335 (peptide)
chain: NEPKKKKYAKEAWPG
B7: PLS4_HUMAN_83 (peptide)
chain: GGIHPVRYQPGKYPM
B8: PLSL_HUMAN_124_YA (peptide)
chain: SASEEEKYAFVNWIN
B9: PLCG1_HUMAN_977 (peptide)
chain: IGTERACYRDMSSFP
B10: PLS4_HUMAN_83_YA (peptide)
chain: GGIHPVRYQPGKAPM
B11: PP1A_HUMAN_306 (peptide)
chain: ADKNKGKYGQFSGLN
B12: PLEC_HUMAN_3033 (peptide)
chain: AKGGELVYTDSEARD
B13: PLEKHG2_HUMAN_489 (peptide)
chain: SEPVKDPYVMFPQNA
B14: PLSL_HUMAN_124 (peptide)
chain: SYSEEEKYAFVNWIN
B15: PLCG2_HUMAN_1245 (peptide)
chain: NENQLQLYQEKCNKR
B16: PLXB1_HUMAN_1708 (peptide)
chain: DSVGEPLYMLFRGIK
B17: PLS4_HUMAN_88_YA (peptide)
chain: VRAQPGKYPMPNQSV
B18: ARHGDIA_HUMAN_156 (peptide)
chain: YGPRAEEYEFLTPVE

Target: SHP2 C-SH2 domain E139D
Test: enrichment score (SH2-bound / input frequency) (ratio); bacterial display of known human phosphotyrosine sites (pTyr-Var adds point mutants) read by sequencing; higher = stronger binding; tyrosines were phosphorylated by kinases first
Settings: peptide library: Human pTyr
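Further: displayed peptides selected on beads carrying the immobilized SH2 domain, with library peptides lacking any tyrosine serving as negative controls.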

Row | Binder | enrichment score
1 | B1 | inactive: 1.77
2 | B2 | inactive: 0.816
3 | B3 | inactive: 0.667
4 | B4 | inactive: 0.876
5 | B5 | inactive: 0.768
6 | B6 | inactive: 0.581
7 | B7 | inactive: 2.59
8 | B8 | inactive: 1.12
9 | B9 | inactive: 0.845
10 | B10 | inactive: 2.78
11 | B11 | inactive: 1.4
12 | B12 | inactive: 0.733
13 | B13 | inactive: 0.733
14 | B14 | inactive: 0.856
15 | B15 | inactive: 1.69
16 | B16 | inactive: 1.27
17 | B17 | inactive: 2.06
18 | B18 | inactive: 0.923

Target: SHP2 C-SH2 domain wild-type
Test: as above
Settings: peptide library: Human pTyr

Row | Binder | enrichment score
19 | B1 | inactive: 1.86
20 | B2 | inactive: 0.705
21 | B3 | inactive: 0.68
22 | B4 | inactive: 0.649
23 | B5 | inactive: 0.647
24 | B6 | inactive: 0.779
25 | B7 | inactive: 2.71
26 | B8 | inactive: 0.807
27 | B9 | inactive: 0.578
28 | B10 | inactive: 2.85
29 | B11 | inactive: 1.49
30 | B12 | inactive: 0.677
31 | B13 | inactive: 0.528
32 | B14 | inactive: 0.943
33 | B15 | inactive: 0.932
34 | B16 | inactive: 1.34
35 | B17 | inactive: 1.94
36 | B18 | inactive: 0.65

Target: SHP2 N-SH2 domain L43F
Test: as above
Settings: peptide library: Human pTyr

Row | Binder | enrichment score
37 | B1 | inactive: 1.53
38 | B2 | inactive: 0.702
39 | B3 | inactive: 0.691
40 | B4 | inactive: 0.594
41 | B5 | inactive: 0.804
42 | B6 | inactive: 0.61
43 | B7 | inactive: 2.5
44 | B8 | inactive: 1.18
45 | B9 | inactive: 0.636
46 | B10 | inactive: 2.68
47 | B11 | inactive: 1.5
48 | B12 | inactive: 0.765
49 | B13 | inactive: 0.512
50 | B14 | inactive: 0.928
51 | B15 | inactive: 0.947
52 | B16 | inactive: 1.07
53 | B17 | inactive: 1.75
54 | B18 | inactive: 0.902

Target: SHP2 N-SH2 domain T42A
Test: as above
Settings: peptide library: Human pTyr

Row | Binder | enrichment score
55 | B1 | inactive: 1.42
56 | B2 | inactive: 0.716
57 | B3 | inactive: 0.665
58 | B4 | inactive: 0.616
59 | B5 | inactive: 0.945
60 | B6 | inactive: 0.546
61 | B7 | inactive: 2.71
62 | B8 | inactive: 0.823
63 | B9 | inactive: 0.649
64 | B10 | inactive: 2.59
65 | B11 | inactive: 1.32
66 | B12 | inactive: 0.59
67 | B13 | inactive: 0.595
68 | B14 | inactive: 0.75
69 | B15 | inactive: 0.893
70 | B16 | inactive: 1.13
71 | B17 | inactive: 2.01
72 | B18 | inactive: 0.732

Target: SHP2 N-SH2 domain T52S
Test: as above
Settings: peptide library: Human pTyr

Row | Binder | enrichment score
73 | B1 | inactive: 1.6
74 | B2 | inactive: 0.694
75 | B3 | inactive: 0.877
76 | B4 | inactive: 0.793
77 | B5 | inactive: 0.763
78 | B6 | inactive: 0.646
79 | B7 | inactive: 2.92
80 | B8 | inactive: 0.696
81 | B9 | inactive: 0.793
82 | B10 | inactive: 3.08
83 | B11 | inactive: 1.49
84 | B12 | inactive: 0.754
85 | B13 | inactive: 0.723
86 | B14 | inactive: 0.839
87 | B15 | inactive: 0.693
88 | B16 | inactive: 1.31
89 | B17 | inactive: 2.18
90 | B18 | inactive: 0.857

Target: SHP2 N-SH2 domain wild-type
Test: as above
Settings: peptide library: Human pTyr

Row | Binder | enrichment score
91 | B1 | inactive: 1.94
92 | B2 | inactive: 0.877
93 | B3 | inactive: 0.711
94 | B4 | inactive: 0.842
95 | B5 | inactive: 0.868
96 | B6 | inactive: 0.552
97 | B7 | active: 3.51
98 | B8 | inactive: 1.03
99 | B9 | inactive: 0.783
100 | B10 | active: 3.6
101 | B11 | inactive: 1.86
102 | B12 | inactive: 0.688
103 | B13 | inactive: 0.683
104 | B14 | inactive: 0.932
105 | B15 | inactive: 1.29
106 | B16 | inactive: 1.3
107 | B17 | inactive: 2.78
108 | B18 | inactive: 0.757
